Results reported in the supplement of paper PMC4604168 (melanoma cell lines).
This is one part of the list. Single values are uncertain, as repeats are few or missing.

Tested on: WM1745
Assay: cell count relative to DMSO control; melanoma cells; higher = more viable cells
Conditions: library dose: standard library concentration; 72 h
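Note: cells treated in 1,536-well plates, then fixed and DAPI-stained, with nuclei counted from automated high-throughput microscope images.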

Row | Structure (SMILES) | cell count [%]
1 | C[C@@H]1CCN(C(=O)CC#N)C[C@@H]1N(C)c1ncnc2[nH]ccc12 + Oc1nc(-c2ccc(C(F)(F)F)cc2)nc2c1CSCC2 [XAV939] (first compound 5 µM, partner dose 10 µM) | 74.6
2 | O=C(Nc1cccc(Cl)c1)Nc1ncc(CCNc2ncnc3ccsc23)s1 + CCCCCCCCCCCC1=C(O)C(=O)C=C(O)C1=O [Embelin] (first compound 0.004 µM, partner dose 6 µM) | 75.5
3 | COc1cc(Nc2ncc(F)c(Nc3ccc4c(n3)NC(=O)C(C)(C)O4)n2)cc(OC)c1OC [Tamatinib] + O=C(Nc1ccccc1)c1cc([N+](=O)[O-])ccc1Cl [GW9662] (first compound 2 µM, partner dose 10 µM) | 9.85
4 | Cn1cncc1[C@@](N)(c1ccc(Cl)cc1)c1ccc2c(c1)c(-c1cccc(Cl)c1)cc(=O)n2C [tipifarnib] + N#Cc1c(O)c2c(-c3ccc(-c4ccccc4O)cc3)csc2[nH]c1=O [A769662] (first compound 0.05 µM, partner dose 10 µM) | 88.3
5 | O=C(Nc1cccc(Cl)c1)Nc1ncc(CCNc2ncnc3ccsc23)s1 + COc1cc(N2CCC(N3CCN(C)CC3)CC2)ccc1Nc1ncc(Cl)c(Nc2ccccc2S(=O)(=O)C(C)C)n1 [NVP-TAE684] (first compound 0.004 µM, partner dose 0.4 µM) | 35.4

Tested on: WM3526
Assay: as above
Conditions: library dose: standard library concentration; 72 h

Row | Structure (SMILES) | cell count [%]
6 | CC1(C)NC(=O)N(c2ccc([N+](=O)[O-])c(C(F)(F)F)c2)C1=O [nilutamide] + CCc1ccc(CCOc2ccc(CC3SC(=O)NC3=O)cc2)nc1 [pioglitazone] (first compound 5 µM, partner dose 10 µM) | 81.4
7 | O=C(Nc1cccc(Cl)c1)Nc1ncc(CCNc2ncnc3ccsc23)s1 + CC(C)CCN1c2nc(Nc3cc(F)c(O)c(F)c3)ncc2N(C)C(=O)C1C [BID1870] (first compound 0.004 µM, partner dose 1 µM) | 36.8
8 | COc1cc(Nc2ncc(F)c(Nc3ccc4c(n3)NC(=O)C(C)(C)O4)n2)cc(OC)c1OC [Tamatinib] + N#Cc1c(O)c2c(-c3ccc(-c4ccccc4O)cc3)csc2[nH]c1=O [A769662] (first compound 2 µM, partner dose 10 µM) | 79
9 | O=C(Nc1cccc(Cl)c1)Nc1ncc(CCNc2ncnc3ccsc23)s1 + COC(=O)c1sccc1S(=O)(=O)Nc1ccc(Nc2ccccc2)cc1OC [GSK0660] (first compound 0.004 µM, partner dose 5 µM) | 46.9
10 | O=C(Nc1cccc(Cl)c1)Nc1ncc(CCNc2ncnc3ccsc23)s1 + c1cc(-c2cnn3cc(-c4ccc(OCCN5CCCCC5)cc4)cnc23)ccn1 [Dorsomorphin] (first compound 0.004 µM, partner dose 2 µM) | 60.9
11 | CC1(C)NC(=O)N(c2ccc([N+](=O)[O-])c(C(F)(F)F)c2)C1=O [nilutamide] + COc1ccc2c(c1)CCC1C2CCC2(C)C(NCCCCCCN3C(=O)C=CC3=O)CCC12 [U73122] (first compound 5 µM, partner dose 2 µM) | 105
12 | O=C(Nc1cccc(Cl)c1)Nc1ncc(CCNc2ncnc3ccsc23)s1 + Oc1cc(-c2nc(-c3ccccc3)[nH]c2-c2ccncc2)ccc1Cl [L779450] (first compound 0.004 µM, partner dose 1 µM) | 47.9
13 | CC1(C)NC(=O)N(c2ccc([N+](=O)[O-])c(C(F)(F)F)c2)C1=O [nilutamide] + Cc1cc([N+](=O)[O-])ccc1NS(=O)(=O)c1cc(Cl)ccc1Cl [FH535] (first compound 5 µM, partner dose 5 µM) | 62.8
14 | O=C(O)c1ccc(-c2c[nH]c3ncc(-c4ccccc4)cc23)cc1C1CCCC1 + CC(C)CCN1c2nc(Nc3cc(F)c(O)c(F)c3)ncc2N(C)C(=O)C1C [BID1870] (first compound 0.8 µM, partner dose 1 µM) | 63
15 | Cn1cncc1[C@@](N)(c1ccc(Cl)cc1)c1ccc2c(c1)c(-c1cccc(Cl)c1)cc(=O)n2C [tipifarnib] + COc1cc(N2CCC(N3CCN(C)CC3)CC2)ccc1Nc1ncc(Cl)c(Nc2ccccc2S(=O)(=O)C(C)C)n1 [NVP-TAE684] (first compound 0.05 µM, partner dose 0.4 µM) | 49.5
